Assay results reported in paper PMC4336329 (PLoS ONE, 2015).
The campaign covered roughly 310,000 compounds. About 14,000 (4.5%) showed an effect of 50% or more. The effect is printed as a negative number. Some of the results follow.

The compounds below were run against human ether-à-go-go-related gene (hERG) potassium channel (human, UniProt Q12809) (assay: primary screen, population patch clamp on CHO cells stably expressing hERG).
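Also: peak tail current of the secondary pulse compared with the same well before compound.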

human ether-à-go-go-related gene (hERG) potassium channel, sequence (Q12809 whole entry, looked up): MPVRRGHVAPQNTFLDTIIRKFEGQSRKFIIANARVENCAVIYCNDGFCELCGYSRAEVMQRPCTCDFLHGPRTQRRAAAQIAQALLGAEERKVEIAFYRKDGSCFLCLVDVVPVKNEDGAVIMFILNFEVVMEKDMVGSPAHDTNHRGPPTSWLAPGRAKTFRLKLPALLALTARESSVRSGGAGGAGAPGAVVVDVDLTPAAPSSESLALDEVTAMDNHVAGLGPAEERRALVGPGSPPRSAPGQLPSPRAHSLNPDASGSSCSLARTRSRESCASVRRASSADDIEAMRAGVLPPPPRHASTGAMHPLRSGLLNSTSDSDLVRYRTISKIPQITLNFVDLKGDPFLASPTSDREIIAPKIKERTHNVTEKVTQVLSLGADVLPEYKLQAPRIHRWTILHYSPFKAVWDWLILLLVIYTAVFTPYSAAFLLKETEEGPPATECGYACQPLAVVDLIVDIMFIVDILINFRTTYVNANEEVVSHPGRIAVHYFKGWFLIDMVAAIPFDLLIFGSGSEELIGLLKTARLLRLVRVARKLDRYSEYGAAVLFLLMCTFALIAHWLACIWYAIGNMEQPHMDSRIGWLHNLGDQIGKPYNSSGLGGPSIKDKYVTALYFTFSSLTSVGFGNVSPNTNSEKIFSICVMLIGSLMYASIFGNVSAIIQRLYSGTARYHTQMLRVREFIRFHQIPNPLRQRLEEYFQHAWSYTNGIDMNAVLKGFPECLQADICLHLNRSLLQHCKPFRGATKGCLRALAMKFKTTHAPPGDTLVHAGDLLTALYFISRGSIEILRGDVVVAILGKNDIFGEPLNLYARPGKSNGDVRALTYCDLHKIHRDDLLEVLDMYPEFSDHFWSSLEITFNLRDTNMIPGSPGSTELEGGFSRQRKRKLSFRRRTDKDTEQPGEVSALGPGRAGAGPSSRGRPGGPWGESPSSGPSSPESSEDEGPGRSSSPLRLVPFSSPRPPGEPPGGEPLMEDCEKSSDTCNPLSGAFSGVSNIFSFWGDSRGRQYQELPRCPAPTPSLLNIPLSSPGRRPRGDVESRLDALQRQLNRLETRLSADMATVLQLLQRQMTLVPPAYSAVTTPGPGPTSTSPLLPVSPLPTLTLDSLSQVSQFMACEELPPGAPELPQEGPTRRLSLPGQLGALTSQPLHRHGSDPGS

Row | SMILES | hERG current change (%, negative = inhibition) at 10uM
1 | Cc1nc(N2CCCCC2)c2c(C)c(C(=O)Nc3ccccc3C(F)(F)F)sc2n1 | 4.43%
2 | CC(=O)NC(=S)NNC(=O)COc1ccc([N+](=O)[O-])cc1 | 10%
3 | COc1ccc(C(CC(=O)Nc2ncccc2C)N2Cc3ccccc3C2=O)cc1 (stereo not drawn) | -1.3%
4 | O=C1NC(=O)C(CC(=O)N(Cc2ccco2)C2(C(=O)NC3CCCCC3)CCCCC2)N1 (stereo not drawn) | -0.128%
5 | O=C(NNC(=O)c1cc(Cl)ccc1O)c1cccs1 | 18.4%
6 | COc1cccc(C2=NOC(C(=O)N3CCN(C(=O)c4ccco4)CC3)C2)c1 (stereo not drawn) | -40.1%
7 | Cc1ccc(NC(=O)c2ccc(S(=O)(=O)NCc3cccnc3)cc2)cc1C | -18.7%
8 | CCC(=O)NNc1ncnc2c1cnn2-c1ccccc1 | 28.9%
9 | COCCNc1nc(Cl)c(C#N)s1 | 9.02%
10 | CCOC(=O)c1c(NC(=S)Nc2ccccc2)sc2c1CCN(CCc1ccccc1)C2 | -64.1%
11 | O=C(Nc1ccc(S(=O)(=O)N2CCCC2)cc1)C1CC(=O)N(CCc2ccc(F)cc2)C1 (stereo not drawn) | 0.572%
12 | Cn1c(=O)c2c(nc(CN3CCN(Cc4ccccc4)CC3)n2Cc2ccc(F)cc2)n(C)c1=O | -67.2%
13 | O=C1NC(Nc2nc3ccccc3s2)(C(F)(F)F)C(=O)N1C1CCCCC1 (stereo not drawn) | -6.17%
14 | CC(OC(=O)c1cccc([N+](=O)[O-])c1)C(=O)N1CCc2ccccc21 (stereo not drawn) | -24%
15 | Cc1nn(-c2ccccc2)c(Cl)c1C(=O)Nc1nnc(C2CCCC2)s1 | -4.98%
16 | C/C(CC(=O)NC(C)(C)C)=N\NC(=O)c1ccccc1N | 4.06%
17 | Cc1nn(C)cc1/C=C1\CCC/C(=C\c2cn(C)nc2C)C1=O | 10.5%
18 | O=C(O)CC12CC3CC(C1)CC(n1ncc(NCc4ccc5c(c4)OCO5)c(Cl)c1=O)(C3)C2 | 13.8%
19 | CCc1sc(C(=O)NCc2ccccc2)cc1C | -9.06%
20 | CCN(CC)S(=O)(=O)c1ccc(NC(=O)C2CCCN(C(=O)c3ccc(Cl)cc3)C2)cc1 (stereo not drawn) | 4.37%
21 | O=C(N/N=C/c1ccc(-c2ccc(Cl)c(C(=O)O)c2)o1)c1cc2c(ccc3ccccc32)o1 | 9.63%
22 | COc1cc(/C=N/Nc2ccc(Cl)c(C(=O)O)c2)ccc1OCC(=O)N1C(C)CCCC1C (stereo not drawn) | 16.5%

Row | SMILES | hERG current change (%, negative = inhibition) at 10uM
23 | CCOC(=O)c1c(-c2ccc(C)cc2)csc1NC(=O)c1ccc(N2C(=O)CCC2=O)cc1 | -0.372%
24 | CNC(=O)c1ccc(Nc2nnc(C)c3ccccc23)cc1 | 4.12%
25 | COc1ccc(C(=O)O)cc1NCc1cccnc1 | 21.8%
26 | CC(C)NS(=O)(=O)c1ccc(OCC(=O)Nc2cccc3ccccc23)cc1 | 1.75%
27 | CCOCCCNC(=O)c1c(N)n(-c2ccc(S(N)(=O)=O)cc2)c2nc3ccccc3nc12 | 9.67%
28 | NC(=O)c1ncc(C(F)(F)F)cc1Oc1ccc(F)cc1 | 11%
29 | CC(=O)Nc1ccc(S(=O)(=O)Oc2ccc(/C=C3\SC(N)=NC3=O)cc2)cc1 | 27%
30 | O=C(NC(=S)Nc1ccc(CN2CCCCC2)cc1)c1cccc(OCc2ccccc2)c1 | -5.83%
31 | CCc1cc2c(Sc3nc4ccccc4s3)ncnc2s1 | 16.9%
32 | O=C(CN1c2cccc3cccc(c23)S1(=O)=O)Nc1ccc(S(=O)(=O)N2CCOCC2)cc1 | 17%
33 | COCc1nnc(NC(=O)CSc2ccc(C)cc2)s1 | 12.9%
34 | Cc1ccc([N+](=O)[O-])cc1NC(=O)CN1CCCCC1 | -11.7%
35 | COc1ccccc1NC(=S)N(Cc1ccco1)Cc1cc2cc(C)ccc2[nH]c1=O | 3.67%
36 | CCOc1ccc(C(=O)NCCC(=O)NCCCC(=O)O)cc1 | 6.08%
37 | CCOC(=O)C1(Cc2cccc(OC)c2)CCN(Cc2ccon2)CC1 | 1.68%
38 | COc1ccccc1NC(=O)CCc1nc(-c2ccccc2F)no1 | -4.66%
39 | Nc1nonc1-n1nnc(C(=O)N/N=C/c2cc(Br)ccc2O)c1CNc1ccccc1 | 20.7%
40 | CN(C)c1ccc(-n2cccc2/C=C2/SC(=Nc3ccc(F)cc3)NC2=O)cc1 | 11.3%
41 | CCOc1ccc(N2CC(C(=O)NCCc3c[nH]c4ccc(C)cc34)CC2=O)cc1 (stereo not drawn) | -36.5%
42 | Cc1ccc(C(=O)N/C(=C/c2cccs2)C(=O)NCCCn2ccnc2)cc1 | -71.9%
43 | COc1cccc(CN2CCCCC2c2cccnc2)c1 (stereo not drawn) | 3.01%
44 | CCC(SC1=NCCS1)C(=O)Nc1ccc(S(N)(=O)=O)cc1 (stereo not drawn) | -1.65%

Row | SMILES | hERG current change (%, negative = inhibition) at 10uM
45 | CC1=CC(c2ccccc2)n2nc(NC(=O)CCCC(=O)O)nc2N1 (stereo not drawn) | 26.3%
46 | CCOC(=O)CSc1nnc(CNC(=O)c2ccco2)n1C | 9.19%
47 | N#CC(C#N)=Cc1cccnc1 | 10.2%
48 | CC(Oc1ccc(Cl)cc1Cl)c1ccnc(N)n1 (stereo not drawn) | 15.3%
49 | COc1cccc(C(=O)NC(=S)Nc2ccc3oc(=O)ccc3c2)c1 | -4.57%
50 | S=C(Nc1ccc2c(c1)OCO2)Nc1ccccc1Cl | 2.65%
51 | N#Cc1nc(-c2cccc(Cl)c2)oc1NCc1cccnc1 | -38.3%
52 | COc1ccc(OC)c(N(CC(=O)NCc2ccccc2)S(=O)(=O)c2ccc(OC)c(OC)c2)c1 | 18.3%
53 | CCOP(=O)(OCC)C(NC(=O)c1cccs1)C(F)(F)F (stereo not drawn) | 18.4%
54 | CSC1=C(C#N)C(c2ccc(Cl)cc2)C2=C(CC(C)(C)CC2=O)N1 (stereo not drawn) | -6.94%
55 | Cn1c(=O)c2c(ncn2CCC(=O)N/N=C/c2ccncc2)n(C)c1=O | 5.33%
56 | CCOc1ccc(NC(=O)CN(C)C(=O)c2cc(C)oc2C)cc1OCC | -8.5%
57 | COc1cccc(C(=O)/C=C/c2ccc(SC)cc2)c1 | -5.67%
58 | Cc1cccc(NC(=O)CS(=O)(=O)c2cn(C)c3ccccc23)c1C | -2.18%
59 | CCc1ccccc1NC(=O)C1C2C=CC(O2)C1C(=O)O (stereo not drawn) | 18.1%
60 | Cc1ccc(SCC(=O)Nc2ccc3c(c2)C(=O)N(C)C3=O)cc1 | 10.1%
61 | CCOC(=O)c1sc(NC(=O)CN2CCN(c3ccc(OC)cc3)CC2)nc1C | -20.6%
62 | Cc1ccc(S(=O)(=O)N(CC(=O)NCc2ccncc2)C2CCCCC2)cc1 | -63%
63 | CCC(C)NC(=O)c1ccccc1-c1ccccc1C(=O)NC(C)CC (stereo not drawn) | 5.37%
64 | COc1cccc(C(=O)NCCSc2ccc(C)cc2)c1 | -38.5%
65 | C/C(=N\NC(=O)c1nnn(-c2nonc2N)c1CN1CCC(C)CC1)c1cccc(Br)c1 | -7.59%
66 | CCC(C)(C)NC(=O)C(c1ccccc1F)N(C(=O)c1ccn[nH]1)c1ccccc1 (stereo not drawn) | -10%

Row | SMILES | hERG current change (%, negative = inhibition) at 10uM
67 | Cc1cc(C)cc(NC(=O)Nc2ccccc2N2CCCCC2)c1 | -5.42%
68 | COc1cccc(NC(=O)Nc2nnc(CC(=O)Nc3ccccc3)s2)c1 | 7.49%
69 | Nc1c(C(=O)Nc2cccc(Cl)c2Cl)sc2nc(-c3cccnc3)ccc12 | 11.4%
70 | COc1ccccc1OCc1ccc(C(=O)N(C)c2ccccc2)o1 | 7.76%
71 | CCn1c(COc2cccc(C)c2)nnc1SCC(=O)NC1CCCC1 | 2.63%
72 | Cc1ccc(C(=O)/C=C/c2ccc(-c3ccc(C)cc3)o2)cc1 | 2.07%
73 | NC(=O)CN(c1ccc(Cl)cc1)S(=O)(=O)c1ccccc1 | -9.45%
74 | CCOCCCNC(=O)c1c[nH]c2ccc(C)cc2c1=O | 11.3%
75 | COc1ccc(-n2ncc3c(NC(C)C)ncnc32)cc1 | 0.368%
76 | Cc1ccn2cc(C(=O)NC3CCN(Cc4ccccc4)CC3)nc2c1 | -28.8%
77 | COc1cc(C(=O)NCC(=O)NC(C)CCc2ccccc2)cc(OC)c1OC (stereo not drawn) | 4.05%
78 | CC(NC(=O)c1cc(F)c(F)cc1Cl)C1CC2CCC1C2 (stereo not drawn) | -5.43%
79 | COC(=O)c1cn(C(=O)c2cc(C)cc(C)c2)c2ccccc12 | 30.7%
80 | Cc1cc(C)nc(-n2nc(C)cc2NC(=O)CN2CCc3ccccc3C2)n1 | -68.7%
81 | COc1cccc(-c2ncc3ccccc3c2COC(=O)c2ccc(F)cc2)c1 | 17.2%
82 | Cc1ccc(-c2nnc3sc(-c4ccncc4)nn23)cc1 | -41.4%
83 | O=C(O)c1ccc(-c2nnc(-c3ccc([N+](=O)[O-])cc3)o2)cc1 | 13.6%
84 | Fc1ccc(Cn2c(-c3cscn3)nc3ccccc32)c(Cl)c1 | 13.8%
85 | O=C1NC(=O)N(Cc2ccccc2)C(=O)/C1=C\C=C\c1ccco1 | 25.4%
86 | CCCS(=O)(=O)N1CCN(C(=O)c2ccco2)CC1 | 22.7%
87 | COc1ccc([C@H]2CC(=O)C=C(c3ccccc3C(F)(F)F)C2)cc1 | 4.66%
